Measurements published in the supplement of paper PMC9334596.
Where “and” joins values, the source holds several entries; their conditions need not be identical. Identical values can stand only once. The full ranking holds about 5,300 compounds; the median of “PER2::LUC luminescence relative to vehicle control” is about 0.96, and the highest 2% start at about 1.3. This is one part of the list.

System: mPer2Luc MEF
Assay: PER2::LUC luminescence relative to vehicle control (fold of vehicle); higher = higher PER2::LUC reporter signal
Details: 10 µM
Method in brief: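 In 384-well plates, ~3000 mPer2Luc reporter mouse embryonic fibroblasts per well were cultured in DMEM with 10% FBS at 37 °C and 5% CO2 for 48 h before compounds from commercial libraries were added at 10 μM. ONE-Glo luciferase readings were taken 24 h and 30 h after treatment. Each value is PER2::LUC luminescence given as fold of vehicle control.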

Row | Structure (SMILES) | PER2::LUC luminescence (time after treatment 24 h) | PER2::LUC luminescence (time after treatment 30 h)
1 | COc1nc2ccc(Br)cc2cc1[C@@H](c1ccccc1)[C@@](O)(CCN(C)C)c1cccc2ccccc12 | 1.05 and 1.01 and 1.17 | 1.09 and 1.05 and 1.01
2 | Cc1c(C(=O)NN2CCCCC2)nn(-c2ccc(Cl)cc2Cl)c1-c1ccc(Cl)cc1 | 0.975 and 1.11 | 1.05 and 0.877
3 | O=C1/C(=C/c2cccs2)CCC/C1=C\c1cccs1 | 1.5 | 1.67
4 | C[C@H]1c2cccc(O)c2C(=O)C2=C(O)[C@]3(O)C(=O)C(C(N)=O)=C(O)[C@@H](N(C)C)[C@@H]3[C@@H](O)[C@@H]21 | 0.604 | 0.779
5 | C=CC(C1=CC(=O)C(OC)=CC1=O)c1ccccc1 (stereo unspecified) | 1.06 | 1.09
6 | COc1cc2c(cc1OC)CC(=O)N(CCCN(C)C[C@H]1Cc3cc(OC)c(OC)cc31)CC2 | 0.894 | 0.911
7 | CC(C)C(=O)Oc1ccc(CO)cc1[C@H](CCN(C(C)C)C(C)C)c1ccccc1 | 0.904 | 0.896
8 | Oc1cc2c(c(Cl)c1O)CCNCC2c1ccccc1 (racemic) | 0.825 | 0.864
9 | Cc1nn(-c2ccccc2)c(C)c1C=NN1CCN(Cc2ccccc2)CC1 | 1.03 | 0.953
10 | Cc1ccc(NC(=O)c2ccc(CN3CCN(C)CC3)cc2)cc1Nc1nccc(-c2cccnc2)n1 | 0.753 and 0.642 | 0.854 and 0.835
11 | O=C(O)C(=O)O.[NH-][C@@H]1CCCC[C@H]1[NH-].[Pt+2] | 1.16 | 0.987
12 | CCOC(=O)COc1ccc2c(=O)cc(-c3ccccc3)oc2c1 | 1.06 | 1.08
13 | CCCCCCCCCCCCCC[C@@H](O)[C@@H](O)[C@@H](N)CO | 1.16 | 1.05
14 | O=C(NCC1(c2nc(-c3ccccc3)cs2)CCOCC1)c1cccc(-c2noc(C(F)(F)F)n2)c1 | 0.923 | 0.884
15 | COc1c(CC(=O)c2cc3c(cc2O)OC(C)(C)C(O)C3)ccc2c1C=CC(C)(C)O2 (stereo unspecified) | 0.181 | 0.237
16 | CCc1cc2c(cc1N1CCC(N3CCOCC3)CC1)C(C)(C)c1[nH]c3cc(C#N)ccc3c1C2=O | 0.77 | 0.795
17 | CCOC(=O)O[C@]1(C(=O)OCCl)CC[C@H]2[C@@H]3CCC4=CC(=O)C=C[C@]4(C)[C@H]3[C@@H](O)C[C@@]21C | 0.768 | 1.11
18 | Fc1ccc(CN(C2=NCCN2)c2c(Cl)cccc2Cl)cc1 | 0.85 | 0.85
19 | Cc1cc(O)cc(C)c1Cl | 1.03 and 0.695 | 1.07 and 0.977
20 | CC(=O)N(c1onc(C)c1C)S(=O)(=O)c1ccc(N)cc1 | 1.04 | 1.04
21 | Cc1cn(-c2cc(NC(=O)c3ccc(C)c(Nc4nccc(-c5cccnc5)n4)c3)cc(C(F)(F)F)c2)cn1 | 0.696 | 0.803

Row | Structure (SMILES) | PER2::LUC luminescence (time after treatment 24 h) | PER2::LUC luminescence (time after treatment 30 h)
22 | Oc1cccc(O)c1 | 1.08 and 0.869 | 0.94 and 0.83
23 | C[C@@H](O[C@H]1OCCN(Cc2n[nH]c(=O)[nH]2)[C@H]1c1ccc(F)cc1)c1cc(C(F)(F)F)cc(C(F)(F)F)c1 | 0.807 | 0.805
24 | Clc1ccccc1CNCC1CCC(CNCc2ccccc2Cl)CC1 (stereo unspecified) | 1.05 | 0.974
25 | C=C1CCC(C2CC(=O)OC2=O)C(=O)CCC2C1CC2(C)C (stereo unspecified) | 1.01 | 1.04
26 | O=C(O)c1cc(=O)c2c(Cl)cc(Cl)cc2[nH]1 | 1.04 | 1
27 | CCCNC(=O)Nc1ccc(Oc2ncnc3cc(OC)c(OC)cc23)cc1Cl | 0.857 | 0.803
28 | CC(=O)c1c(C)c2cnc(Nc3ccc(N4CCNCC4)cn3)nc2n(C2CCCC2)c1=O | 0.613 and 0.634 | 0.89 and 0.451
29 | CCN1C[C@H](C)n2c(c(O)c3c(=O)n(Cc4ccc(F)c(Cl)c4)nc(C(=O)NC)c32)C1=O | 1.29 | 1.16
30 | COc1ccc2cc(C(C)C(=O)Oc3ccc(C(N)=S)cc3)ccc2c1 (stereo unspecified) | 1.11 | 0.978
31 | O=Nc1ccc2oc(=O)ccc2c1 | 0.874 | 0.993
32 | N#CCC(=O)NN | 1.01 and 0.791 | 0.944 and 0.993
33 | CN1CCCN=C1/C=C/c1cccc(O)c1 | 1.11 | 0.993
34 | CC(N)CCCC(C)(C)O (stereo unspecified) | 1.09 | 1.09
35 | CCCCC[C@H](O)/C=C/[C@@H]1[C@H]2C/C(=C/CCCC(=O)O)C[C@H]2C[C@H]1O | 1.01 | 0.947
36 | COc1nccnc1NS(=O)(=O)c1ccc(N)cc1 | 1 | 1.97
37 | CNC(=O)c1ccc(Nc2ncc(C(F)(F)F)c(NCc3nccnc3N(C)S(C)(=O)=O)n2)cc1 | 0.644 | 0.601
38 | CCOC(=O)[C@@H](N)CCC(=O)N[C@@H](CSCc1ccccc1)C(=O)N[C@@H](C(=O)OCC)c1ccccc1 | 1.02 | 0.981
39 | NCCCC[C@H](NC(=O)[C@@H](Cc1cc(Br)c(O)c(Br)c1)NC(=O)N1CCC(N2Cc3ccccc3NC2=O)CC1)C(=O)N1CCN(c2ccncc2)CC1 | 1.01 | 0.866
40 | Cc1ccc(NC(=O)C2(c3ccc4c(c3)OC(F)(F)O4)CC2)nc1-c1cccc(C(=O)O)c1 | 1.2 and 1.15 | 1.16 and 1.12
41 | CC(C)OC(=O)C(C)(C)Oc1ccc(C(=O)c2ccc(Cl)cc2)cc1 | 0.923 | 0.88
42 | O=C1c2ccccc2C(=O)C1c1ccc(Br)cc1 | 0.477 | 0.974

Row | Structure (SMILES) | PER2::LUC luminescence (time after treatment 24 h) | PER2::LUC luminescence (time after treatment 30 h)
43 | NC(=O)CC[C@H](N)C(=O)O | 1 and 0.849 | 0.904 and 0.867
44 | CC=CC1=C(C(=O)O)N2C(=O)[C@@H](NC(=O)[C@H](N)c3ccc(O)cc3)[C@H]2SC1 | 0.904 and 0.846 | 0.905 and 0.854
45 | O=S(=O)(O)Oc1ccc(C(c2ccc(OS(=O)(=O)O)cc2)c2ccccn2)cc1 | 0.914 | 0.992
46 | CCOC(=S)SSC(=S)OCC | 1.21 | 1.04
47 | CN1C(=O)C(Cc2c[nH]c3ccccc23)NC1=S (stereo unspecified) | 1.15 | 1.36
48 | CC1(C)C(O[C@@H]2OC[C@@H](O)[C@H](O)[C@H]2O)CC[C@]23CC24CC[C@]2(C)[C@@H]([C@@]5(C)CC[C@@H](C(C)(C)O)O5)[C@H](O)C[C@@]2(C)C4C[C@@H](O[C@@H]2O[C@H](CO)[C@@H](O)[C@H](O)[C@H]2O)C13 (stereo partly specified) | 0.94 | 0.957
49 | Cc1cc2c(s1)Nc1ccccc1N=C2N1CCN(C)CC1 | 0.969 | 0.934
50 | CC1/C=C/C=C/C=C/C=C/C=C/C=C/C=C/C(OC2O[C@H](C)[C@@H](O)[C@H](N)[C@@H]2O)CC(O)C(C(=O)O)C(O)CC(=O)CC(O)CC(O)CC(O)CC(=O)CCCC(=O)CC(=O)OC1C(C)CC(C)C(O)CC(=O)c1ccc(N)cc1 (stereo partly specified) | 0.901 | 0.885
51 | NC(=O)c1cccc2ncc(-c3ccc(Cl)cc3)nc12 | 1.12 | 1.16
52 | COc1cc2ncnc(Nc3cccc(Cl)c3)c2cc1OC | 0.991 and 0.715 | 0.978 and 0.705
53 | O=c1oc2cc(O)ccc2s1 | 1.07 | 0.93
54 | COc1cc2ncnc(-n3nc(-c4ccccn4)nc3N)c2cc1OC | 0.997 | 1.07
55 | CCOc1ccc2nc(S(N)(=O)=O)sc2c1 | 1.19 | 1.28
56 | c1coc(CNc2ncnc3[nH]cnc23)c1 | 0.996 | 1.06
57 | CS(=O)(=O)c1ccc(-c2nnc(/C=C/c3nnc(-c4ccc(C#N)cc4)o3)n2-c2ccccc2Cl)nc1 | 1.05 | 0.985
58 | COc1cccc(NCC(O)Cn2c3ccc(Br)cc3c3cc(Br)ccc32)c1 (stereo in doubt) | 0.88 | 0.955
59 | O=C(O)[C@H](CC(=O)N1C[C@H]2CCCC[C@H]2C1)Cc1ccccc1 | 1.24 | 1.25
60 | C[C@]12CCC3=C4CCC(=O)C=C4CC[C@H]3[C@@H]1CC[C@@]2(O)CC#N | 0.945 | 0.989
61 | CCOC(=O)c1cnc2c(cnn2CC)c1NN=C(C)C | 0.954 | 0.82
62 | CN1CCCN(C(c2ccccc2)c2ccc(Cl)cc2)CC1 (stereo unspecified) | 0.562 | 0.602
63 | C[C@@H]1C[C@H]2[C@@H]3CCC4=CC(=O)C=C[C@]4(C)[C@@]3(Cl)[C@@H](O)C[C@]2(C)[C@@]1(OC(=O)c1ccco1)C(=O)CCl | 0.516 | 1.13

Row | Structure (SMILES) | PER2::LUC luminescence (time after treatment 24 h) | PER2::LUC luminescence (time after treatment 30 h)
64 | Cc1cc(Br)c(O)c2ncccc12 | 1.19 | 0.958
65 | NC(=O)c1ccc(I)c([N+](=O)[O-])c1 | 0.937 and 0.926 | 0.982 and 0.956
66 | C#C[C@]1(O)CC[C@H]2[C@@H]3CCC4=CC(=O)CC[C@@H]4[C@H]3C(=C)C[C@@]21CC | 0.753 | 1.05
67 | O=C(O)c1cc2cc(Cc3cccnc3)ccc2o1 | 0.801 | 0.865
68 | O=C(O)c1cc(/N=N/c2ccc(S(=O)(=O)Nc3ccccn3)cc2)ccc1O | 0.808 | 0.855
69 | CCCCCCCCCCCCCCCC(=O)O | 0.746 | 1.06
70 | N#C/C(=C\c1ccc(O)c(O)c1)C(=O)NCCCc1ccccc1 | 1.06 | 1.14
71 | C/C(=C\C(=O)OCCCCCCCCC(=O)O)C[C@@H]1OC[C@H](C[C@@H]2O[C@H]2[C@@H](C)[C@H](C)O)[C@@H](O)[C@H]1O | 1.12 | 1.11
72 | CC(CCCCCC(=O)Nc1ccc(C(F)(F)F)cc1)NCCc1cnc[nH]1 (stereo unspecified) | 0.89 | 1.01
73 | CN/C(=N\CCSCc1nc[nH]c1C)NC#N | 0.925 | 1.02
74 | c1ccc(C2CN3CCSC3=N2)cc1 (single isomer, unassigned; (-)) | 1.15 | 0.882
75 | N[C@@H](CSCSC[C@H](N)C(=O)O)C(=O)O | 0.992 | 1.08
76 | O=C(O)c1cc(N(Cc2ccccc2O)Cc2cc(O)ccc2O)ccc1O | 1.05 | 1.03
77 | C[C@]12CCC(=O)C=C1[C@@H]1C[C@@H]1[C@H]1[C@@H]3[C@@H]4C[C@@H]4[C@@]4(CCC(=O)O4)[C@@]3(C)CC[C@@H]12 | 0.925 | 1.03
78 | CC1=CC(=O)CC(C)(C)C1(O)/C=C/C(C)=C\C(=O)O (racemic) | 1.01 | 1.02
79 | N#Cc1cc(CN2CCC(Nc3ncnc4sc(Cl)cc34)CC2)ccc1F | 0.839 | 0.912
80 | COc1ccc2cc([C@H](C)C(=O)O)ccc2c1 | 0.987 and 1.09 and 0.7 | 0.972 and 0.822 and 0.852
81 | CS(=O)(=O)Nc1c(O)ccc2c1CCCC2C1=NCCN1 (stereo unspecified) | 1.08 | 1.06
82 | Nc1ncnc2c1ncn2[C@@H]1O[C@H](COP(=O)(O)OP(=O)(O)OP(=O)(O)OP(=O)(O)OC[C@@H]2O[C@H](n3cnc4c(N)ncnc43)C(O)[C@@H]2O)[C@H](O)C1O (stereo partly specified) | 0.957 | 0.901
83 | Nc1cc(N2CCCCC2)nc(N)[n+]1[O-] | 1.09 | 1.04
